The list shows a part of the results.
Experiments:
Test in all cases: glycan array binding signal (z-score within array); higher = stronger binding
Details in all cases: glycan notation: IUPAC condensed, linker removed
Fuc(a1-2)Gal = molecular target: Fuc(a1-2)Gal
How it was run: (§1)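 The Consortium for Functional Glycomics database supplied 3228 glycan arrays, of which those lacking an available protein sequence were dropped. The binding signal, a within-array Z-score, was averaged across arrays of the same protein sequence and across linkers. Negative scores can be read as non-binding.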

Fuc(a1-2)Gal(b1-3)GalNAc = molecular target: Fuc(a1-2)Gal(b1-3)GalNAc
How it was run: as §1

[1] = molecular target: Fuc(a1-2)Gal(b1-3)GalNAc(a1-3)[Fuc(a1-2)]Gal(b1-4)Glc
How it was run: as §1

[2] = molecular target: Fuc(a1-2)Gal(b1-3)GalNAc(a1-3)[Fuc(a1-2)]Gal(b1-4)GlcNAc
How it was run: as §1

[3] = molecular target: Fuc(a1-2)Gal(b1-3)GalNAc(b1-3)Gal
How it was run: as §1

[4] = molecular target: Fuc(a1-2)Gal(b1-3)GalNAc(b1-3)Gal(a1-4)Gal(b1-4)Glc
How it was run: as §1

[5] = molecular target: Fuc(a1-2)Gal(b1-3)GalNAc(b1-4)[Neu5Ac(a2-3)]Gal(b1-4)Glc
How it was run: as §1

Fuc(a1-2)Gal(b1-3)GlcNAc = molecular target: Fuc(a1-2)Gal(b1-3)GlcNAc
How it was run: as §1

[6] = molecular target: Fuc(a1-2)Gal(b1-3)GlcNAc(b1-2)Man(a1-3)[Fuc(a1-2)Gal(b1-3)GlcNAc(b1-2)Man(a1-6)]Man(b1-4)GlcNAc(b1-4)GlcNAc
How it was run: as §1

[7] = molecular target: Fuc(a1-2)Gal(b1-3)GlcNAc(b1-2)Man(a1-3)[Fuc(a1-2)Gal(b1-3)GlcNAc(b1-2)Man(a1-6)]Man(b1-4)GlcNAc(b1-4)[Fuc(a1-6)]GlcNAc
How it was run: as §1

[8] = molecular target: Fuc(a1-2)Gal(b1-3)GlcNAc(b1-3)Gal(b1-4)Glc
How it was run: as §1

[9] = molecular target: Fuc(a1-2)Gal(b1-3)GlcNAc(b1-3)GalNAc
How it was run: as §1

[10] = molecular target: Fuc(a1-2)Gal(b1-3)GlcNAc(b1-3)[Fuc(a1-2)Gal(b1-3)GlcNAc(b1-6)]GalNAc
How it was run: as §1

[11] = molecular target: Fuc(a1-2)Gal(b1-3)GlcNAc(b1-3)[Fuc(a1-3)[Gal(b1-4)]GlcNAc(b1-6)]Gal(b1-4)Glc
How it was run: as §1

[12] = molecular target: Fuc(a1-2)Gal(b1-3)GlcNAc(b1-3)[Gal(b1-4)GlcNAc(b1-6)]Gal(b1-4)Glc
How it was run: as §1

[13] = molecular target: Fuc(a1-2)Gal(b1-3)GlcNAc(b1-3)[Neu5Ac(a2-6)Gal(b1-4)GlcNAc(b1-6)]Gal(b1-4)Glc
How it was run: as §1

[14] = molecular target: Fuc(a1-2)Gal(b1-3)GlcNAc6S
How it was run: as §1

[15] = molecular target: Fuc(a1-2)Gal(b1-3)[Fuc(a1-4)]GlcNAc
How it was run: as §1

[16] = molecular target: Fuc(a1-2)Gal(b1-3)[Fuc(a1-4)]GlcNAc(b1-2)Man(a1-3)[Fuc(a1-2)Gal(b1-3)[Fuc(a1-4)]GlcNAc(b1-2)Man(a1-3)]Man(b1-4)GlcNAc(b1-4)GlcNAc
How it was run: as §1

[17] = molecular target: Fuc(a1-2)Gal(b1-3)[Fuc(a1-4)]GlcNAc(b1-2)Man(a1-3)[Fuc(a1-2)Gal(b1-3)[Fuc(a1-4)]GlcNAc(b1-2)Man(a1-6)]Man(b1-4)GlcNAc(b1-4)GlcNAc
How it was run: as §1

[18] = molecular target: Fuc(a1-2)Gal(b1-3)[Fuc(a1-4)]GlcNAc(b1-2)Man(a1-3)[Fuc(a1-2)Gal(b1-3)[Fuc(a1-4)]GlcNAc(b1-2)Man(a1-6)]Man(b1-4)GlcNAc(b1-4)[Fuc(a1-6)]GlcNAc(b1-4)[Fuc(a1-6)]GlcNAc
How it was run: as §1

[19] = molecular target: Fuc(a1-2)Gal(b1-3)[Fuc(a1-4)]GlcNAc(b1-2)Man(a1-6)[Fuc(a1-2)Gal(b1-3)[Fuc(a1-4)]GlcNAc(b1-2)Man(a1-3)]Man(b1-4)GlcNAc(b1-4)[Fuc(a1-6)]GlcNAc
How it was run: as §1

B1: Siglec-7-SA-PE-180 (Homo sapiens), Q9Y286 (protein)
chain: MLLLLLLPLLWGRERVEGQKSNRKDYSLTMQSSVTVQEGMCVHVRCSFSYPVDSQTDSDPVHGYWFRAGNDISWKAPVATNNPAWAVQEETRDRFHLLGDPQTKNCTLSIRDARMSDAGRYFFRMEKGNIKWNYKYDQLSVNVTALTHRPNILIPGTLESGCFQNLTCSVPWACEQGTPPMISWMGTSVSPLHPSTTRSSVLTLIPQPQHHGTSLTCQVTLPGAGVTTNRTIQLNVSYPPQNLTVTVFQGEGTASTALGNSSSLSVLEGQSLRLVCAVDSNPPARLSWTWRSLTLYPSQPSNPLVLELQVHLGDEGEFTCRAQNSLGSQHVSLNLSLQQEYTGKMRPVSGVLLGAVGGAGATALVFLSFCVIFIVVRSCRKKSARPAADVGDIGMKDANTIRGSASQGNLTESWADDNPRHHGLAAHSSGEEREIQYAPLSFHKGEPQDLSGQEATNNEYSEIKIPK
- glycan array binding signal (z-score) (Fuc(a1-2)Gal): -0.063
- glycan array binding signal (z-score) (Fuc(a1-2)Gal(b1-3)GalNAc): -0.259
- glycan array binding signal (z-score) [1]: -0.317
- glycan array binding signal (z-score) [2]: -0.497
- glycan array binding signal (z-score) [3]: -0.083
- glycan array binding signal (z-score) [4]: -0.254
- glycan array binding signal (z-score) [5]: -0.345
- glycan array binding signal (z-score) (Fuc(a1-2)Gal(b1-3)GlcNAc): -0.199
- glycan array binding signal (z-score) [6]: -0.335
- glycan array binding signal (z-score) [7]: -0.488
- glycan array binding signal (z-score) [8]: -0.174
- glycan array binding signal (z-score) [9]: -0.26
- glycan array binding signal (z-score) [10]: 0.035
- glycan array binding signal (z-score) [11]: -0.293
- glycan array binding signal (z-score) [12]: -0.106
- glycan array binding signal (z-score) [13]: -0.054
- glycan array binding signal (z-score) [14]: 0.128
- glycan array binding signal (z-score) [15]: -0.018
- glycan array binding signal (z-score) [16]: -0.086
- glycan array binding signal (z-score) [17]: 1.25
- glycan array binding signal (z-score) [18]: 0.111
- glycan array binding signal (z-score) [19]: 0.199

Source: the supplement of paper PMC8728848
